Consider 45 compounds from publication PMC4336329 (PLoS ONE, 2015).

The structures appear in SMILES notation. Out of some 310,000 compounds screened, about 14,000 (4.5%) showed an effect of 50% or more. The effect is printed as a negative number. This is one part of the list.
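Further: peak tail current of the secondary pulse compared with the same well before compound.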

The target in the assay is human ether-à-go-go-related gene (hERG) potassium channel (human, UniProt Q12809). In words: primary screen, population patch clamp on CHO cells stably expressing hERG.
human ether-à-go-go-related gene (hERG) potassium channel, sequence (Q12809 whole entry, looked up): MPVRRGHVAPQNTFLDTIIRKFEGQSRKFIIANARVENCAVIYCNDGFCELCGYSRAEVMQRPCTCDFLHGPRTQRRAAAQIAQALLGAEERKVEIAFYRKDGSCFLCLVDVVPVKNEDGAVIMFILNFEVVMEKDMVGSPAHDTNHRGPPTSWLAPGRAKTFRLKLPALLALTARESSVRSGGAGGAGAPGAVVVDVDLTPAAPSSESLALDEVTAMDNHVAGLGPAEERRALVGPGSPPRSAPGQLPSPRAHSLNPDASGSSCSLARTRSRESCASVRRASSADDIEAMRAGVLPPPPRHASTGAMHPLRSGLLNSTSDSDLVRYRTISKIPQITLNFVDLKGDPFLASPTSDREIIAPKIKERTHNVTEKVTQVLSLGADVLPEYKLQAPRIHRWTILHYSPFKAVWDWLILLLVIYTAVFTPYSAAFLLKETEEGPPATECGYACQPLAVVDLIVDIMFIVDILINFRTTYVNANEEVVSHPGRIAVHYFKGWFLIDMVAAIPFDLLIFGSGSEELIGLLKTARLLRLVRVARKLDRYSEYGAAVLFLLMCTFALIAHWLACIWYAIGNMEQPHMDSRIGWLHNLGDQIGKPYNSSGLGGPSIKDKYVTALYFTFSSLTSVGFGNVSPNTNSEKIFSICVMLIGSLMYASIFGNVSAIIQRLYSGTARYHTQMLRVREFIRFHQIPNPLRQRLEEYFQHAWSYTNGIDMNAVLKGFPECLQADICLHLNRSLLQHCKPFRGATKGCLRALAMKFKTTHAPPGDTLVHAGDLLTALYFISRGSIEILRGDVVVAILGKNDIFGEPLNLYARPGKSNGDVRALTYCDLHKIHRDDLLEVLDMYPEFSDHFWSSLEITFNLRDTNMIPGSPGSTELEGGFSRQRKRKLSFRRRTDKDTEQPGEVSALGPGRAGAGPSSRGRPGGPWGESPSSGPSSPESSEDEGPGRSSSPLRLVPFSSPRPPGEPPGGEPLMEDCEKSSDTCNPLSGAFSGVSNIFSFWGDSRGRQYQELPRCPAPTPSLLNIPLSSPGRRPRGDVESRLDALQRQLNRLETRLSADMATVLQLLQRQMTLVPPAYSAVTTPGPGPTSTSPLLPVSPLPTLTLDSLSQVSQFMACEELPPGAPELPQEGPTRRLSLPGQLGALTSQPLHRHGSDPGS
As to `CC1CCc2c(sc(/N=C/c3ccco3)c2C(N)=O)C1` (stereo not drawn), the “hERG current change (%, negative = inhibition) at 10uM” value turned out to be 2.27%.

As for `CC1(C(=O)OCC(=O)Nc2nnc(-c3ccccc3)o2)CC1(Cl)Cl` (stereo not drawn), the “hERG current change (%, negative = inhibition) at 10uM” value is given as -7.05%.

As to `O=C(CN(Cc1ccc(F)cc1)C(=O)c1csnn1)NCc1ccccc1`, the “hERG current change (%, negative = inhibition) at 10uM” value was -31.6%.

Take `COc1cc(SC)ccc1C(=O)NCCc1ccccc1`: the “hERG current change (%, negative = inhibition) at 10uM” value is on record as -29.9%.

With `COC(=O)c1cnn(-c2nc(OC)cc(OC)n2)c1C`, the “hERG current change (%, negative = inhibition) at 10uM” value was found to be 2.37%.

Turning to `O=C(c1ccc(OC2CCN(Cc3ccccc3OC(F)F)CC2)cc1)N1CCCC1`, the “hERG current change (%, negative = inhibition) at 10uM” value is on record as -3.42%.

Consider `CC1CCC(NS(=O)(=O)c2ccc(Cl)nc2)CC1` (stereo not drawn), for which the “hERG current change (%, negative = inhibition) at 10uM” value is listed as -12%.

For the compound `CCCCN1C(=O)C(=O)N(CC(=O)Nc2cc(Cl)ccc2OC)C1=O`, the “hERG current change (%, negative = inhibition) at 10uM” value is listed as -13.9%.

In the case of `CCCOc1cccc(C(=O)NCCNC(=O)c2ccc(C)nc2)c1`, the “hERG current change (%, negative = inhibition) at 10uM” value is reported as -0.872%.

With `COc1ccc(Oc2ccc(/C=C/C(=O)c3ccc(O)cc3)cc2[N+](=O)[O-])cc1`, the “hERG current change (%, negative = inhibition) at 10uM” value was -0.331%.

On to `CC(=O)CCc1c(C)nc2ccc(C)cc2c1Cl`, for which the “hERG current change (%, negative = inhibition) at 10uM” value is listed as -13.8%.

Consider `CCn1cc([N+](=O)[O-])c(=O)c2cc(F)c(N3CCOCC3)cc21`, for which the “hERG current change (%, negative = inhibition) at 10uM” value is 24.6%.

In the case of `Cc1ccc(S(=O)(=O)N(CC(=O)NN=C2CCN(C)CC2)c2ccc(C(C)C)cc2)cc1`, the “hERG current change (%, negative = inhibition) at 10uM” value is -21.3%.

On to `CC(=O)Oc1ccccc1C(=O)Nc1ccccc1C(=O)N1CCCC1`, for which the “hERG current change (%, negative = inhibition) at 10uM” value is on record as 25.6%.

For the compound `CCc1cc(=O)oc2cc(C)cc(OCC(=O)NC(Cc3ccc(Cl)cc3)C(=O)O)c12` (stereo not drawn), the “hERG current change (%, negative = inhibition) at 10uM” value was -9.21%.

On to `CCCOc1ccccc1C1NC(=O)NC(C)=C1C(=O)OCCOC` (stereo not drawn), for which the “hERG current change (%, negative = inhibition) at 10uM” value was found to be 6.85%.

Take `CCC(C)Nc1nc(OC(C(F)(F)F)C(F)(F)F)nc(OC(C(F)(F)F)C(F)(F)F)n1` (stereo not drawn): the “hERG current change (%, negative = inhibition) at 10uM” value was found to be 4.95%.

Consider `CN(c1ccccc1)S(=O)(=O)c1ccc(Cl)c(C(=O)OCC(=O)NCc2ccco2)c1`, for which the “hERG current change (%, negative = inhibition) at 10uM” value is given as -25%.

On to `Cc1ccsc1C(=O)C1CCCN(Cc2c(C)nn(C(C)C)c2C)C1` (stereo not drawn), for which the “hERG current change (%, negative = inhibition) at 10uM” value was -3.49%.

Turning to `COc1ccc(-c2nc3c4ccccc4ccn3c2CN2CCOCC2)cc1OC.Cl`, the “hERG current change (%, negative = inhibition) at 10uM” value was -34.5%.

For `COc1ccc(S(=O)(=O)N2CCCN(S(=O)(=O)c3ccc(OC)c(C)c3)CC2)cc1C`, the “hERG current change (%, negative = inhibition) at 10uM” value is given as -7.54%.

`CC(CO)(CO)NCc1ccc(-c2ccccc2)cc1.Cl`: the “hERG current change (%, negative = inhibition) at 10uM” value is -6.2%.

As to `O=C(Cn1cnc2ccccc2c1=O)Nc1cccc(S(=O)(=O)N2CCCCC2)c1`, the “hERG current change (%, negative = inhibition) at 10uM” value is -17.5%.

On to `COc1ccc(C(=O)c2cn[nH]c2-c2cc(C)ccc2O)cc1`, for which the “hERG current change (%, negative = inhibition) at 10uM” value amounted to 10.7%.

For the compound `O=C(CN1CCCCC1)N1c2ccccc2CCc2ccccc21`, the “hERG current change (%, negative = inhibition) at 10uM” value worked out at 4.5%.

As for `COc1ccc2c(c1)c(C(=O)O)c(C)n2C(C)C`, the “hERG current change (%, negative = inhibition) at 10uM” value is listed as 13.3%.

Consider `CCCCNC(=O)CN1C(=O)NC2NC(=O)NC21` (stereo not drawn), for which the “hERG current change (%, negative = inhibition) at 10uM” value came out at 15.2%.

Consider `CCCn1c(N)c(N2CCCCC2)c(=O)n(CC(=O)Nc2ccc(OC(F)(F)F)cc2)c1=O`, for which the “hERG current change (%, negative = inhibition) at 10uM” value is recorded as -5.16%.

Consider `CCOc1ccc(C2NC(=O)Cc3cc(OC)c(OC)cc32)cc1` (stereo not drawn), for which the “hERG current change (%, negative = inhibition) at 10uM” value was 16.8%.

`OC(CN1CCCCC1)Cn1c2ccccc2c2cc(Br)ccc21` (stereo not drawn): the “hERG current change (%, negative = inhibition) at 10uM” value is recorded as -33.1%.

With `Cc1ccc(C)c(CSc2ncccc2C(=O)O)c1`, the “hERG current change (%, negative = inhibition) at 10uM” value was 6.29%.

For `Cc1nn(C(=O)c2ccco2)c(C)c1Sc1ccc([N+](=O)[O-])cc1`, the “hERG current change (%, negative = inhibition) at 10uM” value turned out to be 20.8%.

In the case of `Cc1ccccc1S(=O)(=O)NC1OC(=O)C(Cl)=C1Cl` (stereo not drawn), the “hERG current change (%, negative = inhibition) at 10uM” value came out at 13.3%.

On to `COCCNC(=O)c1ccc(Cl)c(Cl)c1`, for which the “hERG current change (%, negative = inhibition) at 10uM” value is recorded as 1.76%.

Regarding `O=C(c1ccc(C(F)(F)F)cc1)c1c[nH]c(C(=O)NCCCn2ccnc2)c1`, the “hERG current change (%, negative = inhibition) at 10uM” value is listed as -70.4%.

In the case of `CCOc1cc(/C=N/N=C(N)N)ccc1OCc1ccc(Cl)cc1`, the “hERG current change (%, negative = inhibition) at 10uM” value is -19.9%.

On to `Cc1cccc(C(=O)NCC(=O)OCC(=O)N2CCCCC2)c1`, for which the “hERG current change (%, negative = inhibition) at 10uM” value stood at 11.4%.

With `CCOC(=O)c1sc(NS(=O)(=O)c2ccc(NC(C)=O)cc2)nc1C`, the “hERG current change (%, negative = inhibition) at 10uM” value is on record as -6.46%.

Turning to `CC1CN(c2nc(-c3ccccc3)nc3ccccc23)CC(C)O1` (stereo not drawn), the “hERG current change (%, negative = inhibition) at 10uM” value was determined as 9.25%.

For `CC(=O)Nc1ccc(S(=O)(=O)N2CCC(N3CCCC3)CC2)cc1`, the “hERG current change (%, negative = inhibition) at 10uM” value is listed as 13.2%.

Regarding `CCN1CCN(C(=O)C(=O)c2cn(CC(=O)N3CCCCCC3)c3ccccc23)CC1`, the “hERG current change (%, negative = inhibition) at 10uM” value is 11.8%.

Consider `Cn1c2ccccc2c(=O)c2c(=O)n(-c3ccccc3)c(C3CCCCC3)nc21`, for which the “hERG current change (%, negative = inhibition) at 10uM” value worked out at 13%.

Consider `Cc1cc(C)cc(NC(=S)NCCc2ccc(S(N)(=O)=O)cc2)c1`, for which the “hERG current change (%, negative = inhibition) at 10uM” value is listed as -15.5%.

Regarding `CCC(C)(C)C1CCC2(CC1)NC(=O)N(CC(=O)N(C)Cc1ccc3c(c1)OCCO3)C2=O` (stereo not drawn), the “hERG current change (%, negative = inhibition) at 10uM” value is -0.519%.

Take `CC1CN(C(=O)c2cn3ccccc3n2)CC(C)O1` (stereo not drawn): the “hERG current change (%, negative = inhibition) at 10uM” value is 6.26%.
